From paper PMC4336329 (PLoS ONE, 2015)
In all, about 310,000 compounds went through this assay and about 2,200 (0.71%) showed an effect of 50% or more. The effect is printed as a negative number. The list shows a part of the results.

target: human ether-à-go-go-related gene (hERG) potassium channel (human, UniProt Q12809); test: primary screen, population patch clamp on CHO cells stably expressing hERG
Sequence (Q12809 whole entry, looked up): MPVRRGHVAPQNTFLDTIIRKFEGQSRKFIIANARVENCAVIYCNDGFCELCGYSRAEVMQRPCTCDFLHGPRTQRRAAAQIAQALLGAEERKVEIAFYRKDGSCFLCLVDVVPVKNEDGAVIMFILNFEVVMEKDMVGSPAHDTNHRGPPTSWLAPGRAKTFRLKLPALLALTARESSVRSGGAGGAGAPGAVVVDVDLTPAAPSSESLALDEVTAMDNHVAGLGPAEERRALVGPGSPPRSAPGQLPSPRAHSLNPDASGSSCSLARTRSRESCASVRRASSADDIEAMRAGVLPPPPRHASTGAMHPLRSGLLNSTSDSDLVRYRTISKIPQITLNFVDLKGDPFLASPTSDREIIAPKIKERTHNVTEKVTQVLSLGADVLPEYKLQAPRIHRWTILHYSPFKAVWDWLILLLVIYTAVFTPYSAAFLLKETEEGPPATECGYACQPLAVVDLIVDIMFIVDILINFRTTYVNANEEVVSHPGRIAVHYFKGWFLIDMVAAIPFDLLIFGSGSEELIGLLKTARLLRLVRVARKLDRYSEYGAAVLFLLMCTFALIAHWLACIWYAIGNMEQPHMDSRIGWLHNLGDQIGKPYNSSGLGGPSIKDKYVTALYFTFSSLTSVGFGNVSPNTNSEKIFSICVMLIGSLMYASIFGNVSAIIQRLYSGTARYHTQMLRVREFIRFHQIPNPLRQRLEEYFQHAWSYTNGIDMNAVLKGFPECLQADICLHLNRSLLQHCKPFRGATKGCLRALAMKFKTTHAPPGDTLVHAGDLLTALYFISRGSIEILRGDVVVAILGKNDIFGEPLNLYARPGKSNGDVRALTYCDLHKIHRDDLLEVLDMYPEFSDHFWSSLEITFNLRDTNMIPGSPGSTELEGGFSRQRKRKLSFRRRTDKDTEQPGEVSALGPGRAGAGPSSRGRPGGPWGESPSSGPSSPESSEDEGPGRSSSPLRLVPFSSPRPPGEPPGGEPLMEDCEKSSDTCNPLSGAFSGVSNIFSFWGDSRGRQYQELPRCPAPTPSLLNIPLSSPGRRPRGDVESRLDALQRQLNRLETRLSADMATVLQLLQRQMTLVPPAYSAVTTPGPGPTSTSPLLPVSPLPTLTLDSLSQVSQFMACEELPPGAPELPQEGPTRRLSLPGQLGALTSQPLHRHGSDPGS

Row | SMILES | hERG current change (%, negative = inhibition) at 1uM [%]
1 | COc1ccccc1OCCNC(=O)c1ccco1 | 8.6
2 | CCOc1ccccc1NC(=O)CNC(=O)Cc1ccccc1 | 6.27
3 | CN(C)c1ccc(NC(=O)CSc2nc(C3CC3)nc3ccccc23)cc1 | 11.8
4 | C=CCc1c(C)[nH]c2ccc(C)cc2c1=O | 23.6
5 | CCOc1ccc(C2=CC(c3ccccc3)n3ncnc3N2)cc1 (stereo not shown) | 0.429
6 | Cc1cc(C)c2nc(C(F)(F)F)nc(NCCCN3CCCC3=O)c2c1 | 7.71
7 | C[C@H](NCc1c[nH]c2ccccc12)c1ccccc1 | 13
8 | CCOC(=O)c1cc(C#N)c(N2CCN(c3ccccn3)CC2)nc1-c1ccccc1 | 7.83
9 | COc1ccc(C(=O)CSc2nccn2C)cc1 | 22.7
10 | C/C(=N\NC(=S)Nc1cccc(C)c1)c1cc2ccccc2o1 | 6.89
11 | COC(=O)c1cccc(N(CC(=O)NC2CCCC2)C(=O)CCC(=O)Nc2cc(C)on2)c1 | 16.8
12 | O=C(O)/C=C/c1ccc(S(=O)(=O)NCc2cccnc2)cc1 | 10.1
13 | CCC(CC)C(=O)N1CCCC(c2nc(-c3cccs3)no2)C1 (stereo not shown) | 15.4
14 | CCOc1ccc(NC(=O)CNC(=O)c2ccc(OC)c(OC)c2)cc1 | 5.55
15 | COc1ccc(CCNC(=O)c2[nH]c(C)c(C(C)=O)c2C)cc1 | 10.9
16 | O=S(=O)(/N=C(\c1ccccc1)N1CCOCC1)c1ccc(Cl)cc1 | 4.74
17 | O=C(CSc1ncn[nH]1)NCCOc1ccccc1 | 13.7
18 | COc1ccc(S(=O)(=O)NC(N)=NCCc2ccc(OC)c(OC)c2)cc1C | 3.75
19 | CC1CC1C(=O)N(C)CC(=O)Nc1ccc(Cl)c(C(F)(F)F)c1 (stereo not shown) | 3.8
20 | O=C(C1CCCC1)N1CCC(CO)(Cc2ccccc2Cl)CC1 | -4.01
21 | O=C(Oc1ccc(/C=N/Nc2nc(N3CCCCC3)nc(N3CCCCC3)n2)cc1)c1ccco1 | 14.6
22 | CCC(=NC)C1=C(O)CC(c2ccccc2)CC1=O (stereo not shown) | 18.7
23 | CC(C)(C)c1csc(NC(=O)c2cccnc2Cl)n1 | -3.19

Row | SMILES | hERG current change (%, negative = inhibition) at 1uM [%]
24 | Clc1ccc(CSc2nnc(CN3CCOCC3)n2-c2ccccc2)cc1Cl | -23.1
25 | O=C(N/N=C/c1ccccc1O)NC12CC3CC(CC(C3)C1)C2 | 7.05
26 | Nc1ccnn1-c1ccccc1 | 10.2
27 | Nc1cc(N)nc(SCc2cccc(F)c2)n1 | 17.8
28 | CC(C)C(NC(=O)c1ccccc1)C(=O)NCCc1ccccc1 (stereo not shown) | 8.25
29 | CSc1ccc(/C=C(\NC(=O)c2ccc(C)cc2)C(=O)NN)cc1 | 12.3
30 | O=C(O)C1OC(Oc2cc3oc(-c4ccccc4)cc(=O)c3c(O)c2O)C(O)C(O)C1O (stereo not shown) | 12.3
31 | CC(C)c1ccc(NC(=O)NC2CC3CCC(C2)N3Cc2cccs2)cc1 (stereo not shown) | 7.97
32 | Cc1ccc(C(=O)N/N=C\C=C\c2ccc(Br)cc2)cn1 | -25.9
33 | COc1ccc(S(=O)(=O)NCc2cccnc2)cc1OC | 12.8
34 | CSCCC(NC(=O)c1cccc(C)c1)C(=O)OCC(=O)Nc1c(C)nn(-c2ccccc2)c1C (stereo not shown) | 2.77
35 | CCOC(=O)c1ccc(NC(=O)c2nc[nH]c2C(=O)N2CCN(c3ccccc3)CC2)cc1 | 12
36 | Cc1ccc(-c2[nH]nc3c2C(c2ccccc2OC(=O)N2CCOCC2)C(C#N)=C(N)O3)cc1 (stereo not shown) | -1.8
37 | COCc1cc(CN2CCN(Cc3ccsc3)C(CCO)C2)ccc1OC (stereo not shown) | -56.6
38 | COc1ccccc1/C=C/C(=O)OCC(=O)c1cc(C)n(C)c1C | 1.53
39 | CN(CC(=O)Nc1ccccc1Br)C(=O)c1cc2c(s1)CCCCC2 | 10.9
40 | C=CCn1c(SCc2c(C(=O)OC)sc(N)c2C(=O)OC)nnc1-c1ccc(Cl)cc1 | -10.9
41 | Cl.O=c1cc[nH]c2c1ccc1c(=O)cc[nH]c12 | 17.1
42 | O=[N+]([O-])c1ccc(-c2nc(Nc3cccc(O)c3)c3ccccc3n2)cc1 | 13.5
43 | c1ccc2[nH]c(CN3CCN(c4ncnc5c4oc4ccccc45)CC3)nc2c1 | -18.1
44 | NS(=O)(=O)c1ccc(CCNC(=O)c2ccccc2F)cc1 | 4.79
45 | O=C(Cc1ccc([N+](=O)[O-])cc1)Nc1cccnc1 | 0.804
46 | CCCN(CC(=O)Nc1ccccc1OC)C(=O)c1cc(-c2ccccc2)nn1-c1ccccc1 | 13.8

Row | SMILES | hERG current change (%, negative = inhibition) at 1uM [%]
47 | COCCNC(=O)/C(C#N)=C/c1ccc(OCC(=O)NC2CCCCC2)cc1 | 8.74
48 | CN(C)C(=O)CCC(=O)N1CCCCC1C(=O)Nc1ccc(Oc2ccccc2F)cc1 (stereo not shown) | -17.3
49 | Cc1[nH]c2ccccc2c1CN1CCC(CO)(Cc2ccccc2)CC1 | 2.55
50 | Cc1cccc(C(=O)Nc2scc(CC(C)C)c2C(=O)O)c1 | 13
51 | CC(C(N)=O)N1CC(c2ccc(Cl)cc2)CC1=O (stereo not shown) | -1.16
52 | CCc1ccc(NC(=O)COc2coc(CN3CCc4ccccc4C3)cc2=O)cc1 | -1.74
53 | CCOC(=O)C1CCCN(C(=O)c2cccc(S(=O)(=O)N3CC(C)OC(C)C3)c2)C1 (stereo not shown) | 13.5
54 | Cc1cccc(N2CCN(C(=O)Cn3c(=O)[nH]c4ccsc4c3=O)CC2C)c1 (stereo not shown) | 13
55 | CS(=O)(=O)Cc1ccc(C(=O)NC2CCCc3ccccc32)cc1 (stereo not shown) | 13.5
56 | CCCC(=O)N1CC(=O)Nc2ccc(F)cc2C1c1ccccc1 (stereo not shown) | 4.75
57 | Cc1cccc(C)c1NC(=O)c1ccc(-c2ccc(Cl)cc2Cl)o1 | -4.04
58 | Oc1ccc(Cl)cc1Cc1cc(Cl)ccc1O | 16.6
59 | CC(C)Cn1c(Cc2ccccc2)n[nH]c1=S | 12.3
60 | CC(C)CNC(=S)N1CCN(c2nc3ccccc3s2)CC1 | 18.5
61 | CCCCCOC(=O)NC1CCS(=O)(=O)C1 (stereo not shown) | -8.31
62 | Cc1ccccc1S(=O)(=O)Nc1nc2ccccc2nc1NCCO | 14.5
63 | CC(CCc1ccccc1)NC(=O)CSc1ccccc1 (stereo not shown) | 9.29
64 | O=C(NNc1ccccc1Br)C(=O)n1ccc2ccccc21 | -4.23
65 | CC(C)(C)c1cc(Br)ccc1OCC(=O)Nc1ncn[nH]1 | 14.8
66 | Cc1ccccc1N1CCN(S(=O)(=O)c2ccc3oc(=O)ccc3c2)CC1 | 11.3
67 | O=C(O)C(Cc1c[nH]c2ccccc12)NS(=O)(=O)c1cccc2nsnc12 (stereo not shown) | 1.76
68 | Cc1cc(C)n(CCNC(=O)C2CCC(=O)N(CC3CCCCC3)C2)n1 (stereo not shown) | 16.1
69 | O=C(NC1CCCC1)c1ccc(COc2ccccc2Br)o1 | 3.35

Row | SMILES | hERG current change (%, negative = inhibition) at 1uM [%]
70 | O=C(c1ccccn1)N1CCN(S(=O)(=O)c2cccc(Br)c2)CC1 | 2.24
71 | NC1=NCC(O)=C1c1nc2ccccc2[nH]1 | 7.99
72 | Cc1cc(NC(=O)c2ccccc2O)nc(C)n1 | 16.2
73 | O=C(NC1CCN(C(=O)N2c3ccccc3Sc3ccccc32)CC1)c1ccccc1Cl | 3.25
74 | COc1ccc(CNC(=O)CCC(=O)c2ccc(C)cc2)cc1OC | 22.8
75 | COc1ccc(NC(=S)Nc2ccc(N)c([N+](=O)[O-])c2)cc1 | 15.6
76 | CC(=O)Nc1ccc(S(=O)(=O)N2CCc3cc4c(cc3C2)OCCCO4)cc1 | 14
77 | CCOC(=O)/C=C(/C)N1N=C(c2ccc(OC)cc2)CC1c1cccc([N+](=O)[O-])c1 (stereo not shown) | 20.4
78 | CCN(CC)CCCn1c2c(c(SCC(=O)Nc3cc(OC)cc(OC)c3)nc1=O)CCC2 | -28.5
79 | CCOC(=O)N1C(=O)c2cc(OC)ccc2S1(=O)=O | 12.5
80 | Cn1c(=O)[nH]c(=O)c2c1nc(N/N=C/c1cccnc1)n2Cc1ccc(Cl)cc1 | 17.5
81 | CC(C)(CNC(=O)c1ccc([N+](=O)[O-])c(Cl)c1)CNC(=O)c1ccc([N+](=O)[O-])c(Cl)c1 | 6.69
82 | O=C(Nc1nnc(CCN2CCCCC2)s1)c1cccc(Cl)c1 | 0.306
83 | COCc1ccccc1C1=CC(=O)C[C@H](c2ccc(OC)cc2)C1 | 11.1
84 | CCCc1cc(C(=O)Nc2cccc([N+](=O)[O-])c2)cs1 | 4.31
85 | O=S(=O)(NCC(c1ccco1)N1CCN(c2ccc(F)cc2)CC1)c1ccc2c(c1)OCCO2 (stereo not shown) | 8.79
86 | COc1ccccc1Nc1nc(NCCO)nc(N)c1[N+](=O)[O-] | 10.6
87 | CCOC(=O)c1[nH]c2ccc(OC)cc2c1NS(=O)(=O)c1ccc(Cl)s1 | 18.7
88 | Cn1cccc1CNC(=S)Nc1ccccc1F | 11
89 | CCc1ccc(OCC(=O)N2CCN=C2c2ccccc2)cc1 | 3.19
90 | NC(=O)COc1ccc(-c2noc(COc3ccccc3[N+](=O)[O-])n2)cc1 | 6.51
91 | O=C(O)c1ccccc1N/N=C/C1=C(N2CCOCC2)C(=C\c2ccccc2)/CC1 | 11.5
